# Patent publication US7425576B2, “Compounds as inhibitors of hepatitis C virus NS3 serine protease” (Schering Corporation, priority 2004, dated 2008)
# Target: Recombinant heterodimeric HCV NS3/NS4A protease (strain 1a) (Hepatitis C virus genotype 1a, UniProt P27958)
# Assay: Spectrophotometric assay for HCV protease inhibitory activity (chromogenic ester substrates)
# Format: biochemical
# Settings: Table 1, Ki* range class
# Description: The present invention relates to novel HCV protease inhibitors. This utility can be manifested in their ability to inhibit the HCV NS2/NS4a serine protease.
# Assay for HCV Protease Inhibitory Activity:
# Spectrophotometric Assay: Spectrophotometric assay for the HCV serine protease can be performed on the inventive compounds by following the procedure described by R. Zhang et al, Analytical Biochemistry, 270 (1999) 268-275, the disclosure of which is incorporated herein by reference. The assay based on the proteolysis of chromogenic ester substrates is suitable for the continuous monitoring of HCV NS3 protease activity. The substrates are derived from the P side of the NS5A-NS5B junction sequence (Ac-DTEDVVX(Nva), where X=A or P) whose C-terminal carboxyl groups are esterified with one of four different chromophoric alcohols (3- or 4-nitrophenol, 7-hydroxy-4-methyl-coumarin, or 4-phenylazophenol). Illustrated below are the synthesis, characterization and application of these novel spectrophotometric ester substrates to high throughput screening and detailed kinetic evaluation of HCV NS3 protease inhibitors.
# Protein concentrations are determined by the Biorad dye method using recombinant HCV protease standards previously quantified by amino acid analysis. Prior to assay initiation, the enzyme storage buffer (50 mM sodium phosphate pH 8.0, 300 mM NaCl, 10% glycerol, 0.05% lauryl maltoside and 10 mM DTT) is exchanged for the assay buffer (25 mM MOPS pH 6.5, 300 mM NaCl, 10% glycerol, 0.05% lauryl maltoside, 5 μM EDTA and 5 μM DTT) utilizing a Biorad Bio-Spin P-6 prepacked column.
# Protease Assay: HCV protease assays are performed at 30° C. using a 200 μl reaction mix in a 96-well microtiter plate. Assay buffer conditions (25 mM MOPS pH 6.5, 300 mM NaCl, 10% glycerol, 0.05% lauryl maltoside, 5 μM EDTA and 5 μM DTT) are optimized for the NS3/NS4A heterodimer (D. L. Sali et al, ibid.)). Typically, 150 μl mixtures of buffer, substrate and inhibitor are placed in wells (final concentration of DMSO≦4% v/v) and allowed to preincubate at 30° C. for approximately 3 minutes. Fifty μls of prewarmed protease (12 nM, 30° C.) in assay buffer, is then used to initiate the reaction (final volume 200 μl).The plates are monitored over the length of the assay (60 minutes) for change in absorbance at the appropriate wavelength (340 nm for 3-Np and HMC, 370 nm for PAP, and 400 nm for 4-Np) using a Spectromax Plus microtiter plate reader equipped with a monochrometer (acceptable results can be obtained with plate readers that utilize cutoff filters). Proteolytic cleavage of the ester linkage between the Nva and the chromophore is monitored at the appropriate wavelength against a no enzyme blank as a control for non-enzymatic hydrolysis. The evaluation of substrate kinetic parameters is performed over a 30-fold substrate concentration range (˜6-200 μM). Initial velocities are determined using linear regression and kinetic constants are obtained by fitting the data to the Michaelis-Menten equation using non-linear regression analysis (Mac Curve Fit 1.1, K. Raner). Turnover numbers (kcat) are calculated assuming the enzyme is fully active.
# Evaluation of Inhibitors and Inactivators: The inhibition constants (Ki) for the competitive inhibitors Ac-D-(D-Gla)-L-I-(Cha)-C—OH (27), Ac-DTEDVVA(Nva)-OH and Ac-DTEDVVP(Nva)-OH are determined experimentally at fixed concentrations of enzyme and substrate by plotting vo/vi vs. inhibitor concentration ([I]o) according to the rearranged Michaelis-Menten equation for competitive inhibition kinetics: vo/vi=1+[I]o/(Ki(1+[S]o/Km)), where vo is the uninhibited initial velocity, vi is the initial velocity in the presence of inhibitor at any given inhibitor concentration ([I]o) and [S]o is the substrate concentration used.
row,SMILES,Ki
1,C=CCNC(=O)C(=O)C(CCC)NC(=O)[C@@H]1[C@@H]2[C@H](CN1C(=O)[C@@H](NC(=O)NC(COC(=O)NCC)C(C)(C)C)C1Cc3ccccc3C1)C2(C)C (stereo in doubt) [Example 1023],< 75 nM
2,C=CCNC(=O)C(=O)C(CCC)NC(=O)[C@@H]1[C@@H]2[C@H](CN1C(=O)[C@@H](NC(=O)N[C@H](COC(=O)NCC1CC1)C(C)(C)C)C(C)(C)C)C2(C)C (stereo in doubt) [Example 1029],< 75 nM
3,CC(C)(C)[C@H](NC(=O)N[C@H](COC(=O)Nc1ccccc1)C(C)(C)C)C(=O)N1C[C@H]2[C@@H]([C@H]1C(=O)NC(CC1CC1)C(=O)C(N)=O)C2(C)C (stereo partly shown) [Example 1006],< 75 nM
4,CC(C)NC(=O)OC[C@@H](NC(=O)N[C@H](C(=O)N1C[C@H]2[C@@H]([C@H]1C(=O)NC(CC1CCC1)C(=O)C(N)=O)C2(C)C)C1Cc2ccccc2C1)C(C)C (stereo partly shown) [Example 1007],< 75 nM
5,CC(C)NC(=O)OC[C@@H](NC(=O)N[C@H](C(=O)N1C[C@H]2[C@@H]([C@H]1C(=O)NC(CC1CC1)C(=O)C(N)=O)C2(C)C)C1Cc2ccccc2C1)C(C)C (stereo partly shown) [Example 1008],< 75 nM
6,CC(C)[C@@H](COC(=O)NC(C)(C)C)NC(=O)N[C@H](C(=O)N1C[C@H]2[C@@H]([C@H]1C(=O)NC(CC1CC1)C(=O)C(N)=O)C2(C)C)C1Cc2ccccc2C1 (stereo partly shown) [Example 1009],< 75 nM
7,CC(C)[C@@H](COC(=O)NC(C)(C)C)NC(=O)N[C@H](C(=O)N1C[C@H]2[C@@H]([C@H]1C(=O)NC(CC1CCC1)C(=O)C(N)=O)C2(C)C)C1Cc2ccccc2C1 (stereo partly shown) [Example 1010],< 75 nM
8,C=CCNC(=O)C(=O)C(CC1CC1)NC(=O)[C@@H]1[C@@H]2[C@H](CN1C(=O)[C@@H](NC(=O)N[C@H](COC(=O)NC(C)C)C(C)(C)C)C1Cc3ccccc3C1)C2(C)C (stereo partly shown) [Example 1011],< 75 nM
9,C=CCNC(=O)C(=O)C(CCC)NC(=O)[C@@H]1[C@@H]2[C@H](CN1C(=O)[C@@H](NC(=O)N[C@H](COC(=O)NC(C)C)C(C)(C)C)C1Cc3ccccc3C1)C2(C)C (stereo partly shown) [Example 1012],< 75 nM
10,CC(C)NC(=O)OC[C@@H](NC(=O)N[C@H](C(=O)N1C[C@H]2[C@@H]([C@H]1C(=O)NC(CC1CC1)C(=O)C(N)=O)C2(C)C)C1Cc2ccccc2C1)C(C)(C)C (stereo partly shown) [Example 1013],< 75 nM
11,CC(C)NC(=O)OC[C@@H](NC(=O)N[C@H](C(=O)N1C[C@H]2[C@@H]([C@H]1C(=O)NC(CC1CCC1)C(=O)C(N)=O)C2(C)C)C1Cc2ccccc2C1)C(C)(C)C (stereo partly shown) [Example 1014],< 75 nM
12,C=CCNC(=O)C(=O)C(CCC(F)(F)F)NC(=O)[C@@H]1[C@@H]2[C@H](CN1C(=O)[C@@H](NC(=O)N[C@H](COC(=O)NC(C)C)C(C)(C)C)C1Cc3ccccc3C1)C2(C)C (stereo partly shown) [Example 1015],< 75 nM
13,C=CCNC(=O)C(=O)C(CCC)NC(=O)[C@@H]1[C@@H]2[C@H](CN1C(=O)[C@@H](NC(=O)N[C@H](COC(=O)Nc1ccccc1)C(C)(C)C)C(C)(C)C)C2(C)C (stereo partly shown) [Example 1016],< 75 nM
14,C=CCNC(=O)C(=O)C(CCC)NC(=O)[C@@H]1[C@@H]2[C@H](CN1C(=O)[C@@H](NC(=O)N[C@H](COC(=O)NC(C)(C)C)C(C)C)C(C)(C)C)C2(C)C (stereo partly shown) [Example 1017],< 75 nM
15,C=CCNC(=O)C(=O)C(CCC)NC(=O)[C@@H]1[C@@H]2[C@H](CN1C(=O)[C@@H](NC(=O)N[C@H](COC(=O)NC(C)(C)C)C(C)(C)C)C(C)(C)C)C2(C)C (stereo partly shown) [Example 1018],< 75 nM
16,CC(C)[C@@H](COC(=O)NCC1CC1)NC(=O)N[C@H](C(=O)N1C[C@H]2[C@@H]([C@H]1C(=O)NC(CC1CC1)C(=O)C(N)=O)C2(C)C)C(C)(C)C (stereo partly shown) [Example 1019],< 75 nM
17,CC(C)[C@@H](COC(=O)NCC1CC1)NC(=O)N[C@H](C(=O)N1C[C@H]2[C@@H]([C@H]1C(=O)NC(CC1CCC1)C(=O)C(N)=O)C2(C)C)C(C)(C)C (stereo partly shown) [Example 1020],< 75 nM
18,C=CCNC(=O)C(=O)C(CCC)NC(=O)[C@@H]1[C@@H]2[C@H](CN1C(=O)[C@@H](NC(=O)N[C@H](COC(=O)NCC1CC1)C(C)C)C(C)(C)C)C2(C)C (stereo partly shown) [Example 1021],< 75 nM
19,C=CCNC(=O)C(=O)C(CC1CC1)NC(=O)[C@@H]1[C@@H]2[C@H](CN1C(=O)[C@@H](NC(=O)NC(COC(=O)NCC)C(C)(C)C)C1Cc3ccccc3C1)C2(C)C (stereo partly shown) [Example 1022],< 75 nM
20,CCNC(=O)OC[C@@H](NC(=O)N[C@H](C(=O)N1C[C@H]2[C@@H]([C@H]1C(=O)NC(CC1CC1)C(=O)C(N)=O)C2(C)C)C1Cc2ccccc2C1)C(C)(C)C (stereo partly shown) [Example 1024],< 75 nM
21,CCNC(=O)OC[C@@H](NC(=O)N[C@H](C(=O)N1C[C@H]2[C@@H]([C@H]1C(=O)NC(CC1CCC1)C(=O)C(N)=O)C2(C)C)C1Cc2ccccc2C1)C(C)(C)C (stereo partly shown) [Example 1025],< 75 nM
22,C=CCNC(=O)C(=O)C(CCC(F)(F)F)NC(=O)[C@@H]1[C@@H]2[C@H](CN1C(=O)[C@@H](NC(=O)N[C@H](COC(=O)NCC)C(C)(C)C)C1Cc3ccccc3C1)C2(C)C (stereo partly shown) [Example 1026],< 75 nM
23,CC(C)(C)[C@H](NC(=O)N[C@H](COC(=O)NCC1CC1)C(C)(C)C)C(=O)N1C[C@H]2[C@@H]([C@H]1C(=O)NC(CC1CC1)C(=O)C(N)=O)C2(C)C (stereo partly shown) [Example 1027],< 75 nM
24,CC(C)(C)[C@H](NC(=O)N[C@H](COC(=O)NCC1CC1)C(C)(C)C)C(=O)N1C[C@H]2[C@@H]([C@H]1C(=O)NC(CC1CCC1)C(=O)C(N)=O)C2(C)C (stereo partly shown) [Example 1028],< 75 nM
25,C=CCNC(=O)C(=O)C(CC1CC1)NC(=O)[C@@H]1[C@@H]2[C@H](CN1C(=O)[C@@H](NC(=O)N[C@H](COC(=O)NC(C)(C)C)C(C)(C)C)C1Cc3ccccc3C1)C2(C)C (stereo partly shown) [Example 1030],< 75 nM
26,C=CCNC(=O)C(=O)C(CCC)NC(=O)[C@@H]1[C@@H]2[C@H](CN1C(=O)[C@@H](NC(=O)N[C@H](COC(=O)NC(C)(C)C)C(C)(C)C)C1Cc3ccccc3C1)C2(C)C (stereo partly shown) [Example 1031],< 75 nM
27,CC(C)(C)NC(=O)OC[C@@H](NC(=O)N[C@H](C(=O)N1C[C@H]2[C@@H]([C@H]1C(=O)NC(CC1CC1)C(=O)C(N)=O)C2(C)C)C1Cc2ccccc2C1)C(C)(C)C (stereo partly shown) [Example 1032],< 75 nM
28,CC(C)(C)NC(=O)OC[C@@H](NC(=O)N[C@H](C(=O)N1C[C@H]2[C@@H]([C@H]1C(=O)NC(CC1CCC1)C(=O)C(N)=O)C2(C)C)C1Cc2ccccc2C1)C(C)(C)C (stereo partly shown) [Example 1033],< 75 nM
29,CN(C)C(=O)OC[C@@H](NC(=O)N[C@H](C(=O)N1C[C@H]2[C@@H]([C@H]1C(=O)NC(CC1CCC1)C(=O)C(N)=O)C2(C)C)C1Cc2ccccc2C1)C(C)(C)C (stereo partly shown) [Example 1034],< 75 nM
30,CN(C)C(=O)OC[C@@H](NC(=O)N[C@H](C(=O)N1C[C@H]2[C@@H]([C@H]1C(=O)NC(CC1CC1)C(=O)C(N)=O)C2(C)C)C1Cc2ccccc2C1)C(C)(C)C (stereo partly shown) [Example 1035],< 75 nM

# Same assay, conditions: Table 3, Ki* range class
row,SMILES,Ki
1,CC(C)(COCc1ccccc1)NC(=O)N[C@H](C(=O)N1C[C@H]2[C@@H]([C@H]1C(=O)NC(CC1CC1)C(=O)C(N)=O)C2(C)C)C(C)(C)C (mixture of isomers) [Example 1629],75 to 250 nM
2,CC(C)(C)OC[C@H](NC(=O)N[C@H](C(=O)N1C[C@H]2[C@@H]([C@H]1C(=O)NC(CC1CCC1)C(=O)C(N)=O)C2(C)C)C(C)(C)C)C(C)(C)C (stereo in doubt) [Example 1610],< 75 nM

# Same assay, conditions: Table 6, numeric Ki*
row,SMILES,Ki
1,C=CCNC(=O)C(=O)C(CCC)NC(=O)[C@@H]1[C@@H]2[C@H](CN1C(=O)[C@@H](NC(=O)NC(COC(=O)NCC)C(C)(C)C)C1Cc3ccccc3C1)C2(C)C (stereo in doubt) [Example 1023],33 nM
2,C=CCNC(=O)C(=O)C(CCC)NC(=O)[C@@H]1[C@@H]2[C@H](CN1C(=O)[C@@H](NC(=O)N[C@H](COC(=O)NCC1CC1)C(C)(C)C)C(C)(C)C)C2(C)C (stereo in doubt) [Example 1029],14 nM
3,C=CCNC(=O)C(=O)C(CCC)NC(=O)[C@@H]1[C@@H]2[C@H](CN1C(=O)[C@@H](NC(=O)N[C@H](COC(=O)NC(C)C)C(C)(C)C)C1Cc3ccccc3C1)C2(C)C (stereo partly shown) [Example 1012],40 nM
4,CCNC(=O)OC[C@@H](NC(=O)N[C@H](C(=O)N1C[C@H]2[C@@H]([C@H]1C(=O)NC(CC1CC1)C(=O)C(N)=O)C2(C)C)C1Cc2ccccc2C1)C(C)(C)C (stereo partly shown) [Example 1024],7.3 nM
5,CCNC(=O)OC[C@@H](NC(=O)N[C@H](C(=O)N1C[C@H]2[C@@H]([C@H]1C(=O)NC(CC1CCC1)C(=O)C(N)=O)C2(C)C)C1Cc2ccccc2C1)C(C)(C)C (stereo partly shown) [Example 1025],6.7 nM
